According to the supplement of paper PMC4967469:

Tests used:
Assay in all cases: Viability of human cancer cell lines after 72 h of drug (GDSC screen)
Tubastatin A = compound: CN1CCc2c(c3ccccc3n2Cc2ccc(C(=O)NO)cc2)C1 [Tubastatin A]; details: top dose 20 µM
Method: (§1)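 Human cancer cell lines in 384-well plates, medium with 10% serum, drug for 72 h over a 256-fold dose range (nine 2-fold or five 4-fold steps up to the top dose). Adherent lines were fixed and stained with the nucleic acid dye Syto60, suspension lines read with resazurin; signal relative to control wells, capped at 0 and 100%. One two-parameter sigmoid per drug and line, fitted in a mixed model over all curves with the slope shared within a line.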

CI-1040 = compound: O=C(NOCC1CC1)c1ccc(F)c(F)c1Nc1ccc(I)cc1Cl [CI-1040]; details: top dose 10 µM; top dose inferred
Method: as §1

JW-7-52-1 = compound: CCC(=O)N1CCN(c2ccc(-n3c(=O)ccc4cnc5ccc(-c6cnc7ccccc7c6)cc5c43)cc2C(F)(F)F)CC1 [JW-7-52-1]; details: top dose 1.2 µM; top dose inferred
Method: as §1

Temozolomide = compound: Cn1nnc2c(C(N)=O)ncn2c1=O [Temozolomide]; details: top dose 30 µM
Method: as §1

XL-880 = compound: COc1cc2c(Oc3ccc(NC(=O)C4(C(=O)Nc5ccc(F)cc5)CC4)cc3F)ccnc2cc1OCCCN1CCOCC1 [XL-880]; details: top dose 5.12 µM; top dose inferred
Method: as §1

Rapamycin = compound: CO[C@H]1C[C@@H]2CC[C@@H](C)[C@@](O)(O2)C(=O)C(=O)N2CCCC[C@H]2C(=O)O[C@H]([C@H](C)C[C@@H]2CC[C@@H](O)[C@H](OC)C2)CC(=O)[C@H](C)/C=C(\C)[C@@H](O)[C@@H](OC)C(=O)[C@H](C)C[C@H](C)/C=C/C=C/C=C/1C [Rapamycin]; details: top dose 0.1 µM; top dose inferred
Method: as §1

ZG-10 = compound: CN(C)C/C=C/C(=O)Nc1ccc(C(=O)Nc2cccc(Nc3nccc(-c4cccnc4)n3)c2)cc1 [ZG-10]; details: top dose 10 µM; top dose inferred
Method: as §1

Z-LLNle-CHO = compound: CCCC[C@@H](C=O)NC(=O)[C@H](CC(C)C)NC(=O)[C@H](CC(C)C)NC(=O)OCc1ccccc1 [Z-LLNle-CHO]; details: top dose 2.56 µM; top dose inferred
Method: as §1

IPA-3 = compound: Oc1ccc2ccccc2c1SSc1c(O)ccc2ccccc12 [IPA-3]; details: top dose 32 µM; top dose inferred
Method: as §1

Row | Cell Line | AUC (Tubastatin A) | IC50 (Tubastatin A) | AUC (CI-1040) | IC50 (CI-1040) | AUC (JW-7-52-1) | IC50 (JW-7-52-1) | AUC (Temozolomide) | IC50 (Temozolomide) | AUC (XL-880) | IC50 (XL-880) | AUC (Rapamycin) | IC50 (Rapamycin) | AUC (ZG-10) | IC50 (ZG-10) | AUC (Z-LLNle-CHO) | IC50 (Z-LLNle-CHO) | AUC (IPA-3) | IC50 (IPA-3)
1 | ATN-1 (T-cell lymphoblastic leukaemia, suspension) | 0.821 | 10600 nM | 0.914 | > 10000 nM | 0.374 | 34.5 nM | 0.837 | 18200 nM | 0.707 | 1170 nM | 0.872 | 84.5 nM | 0.731 | 2690 nM | 0.683 | 499 nM | 0.928 | > 32000 nM
2 | NCI-H446 (small cell lung carcinoma, semi-adherent) | 0.825 | 13100 nM | 0.983 | > 10000 nM | 0.613 | 158 nM | 0.962 | > 30000 nM | 0.523 | 371 nM | 0.963 | > 100 nM | 0.57 | 986 nM | 0.866 | > 2560 nM | 0.985 | > 32000 nM
3 | MZ1-PC (pancreas, adherent) | 0.858 | > 20000 nM | 0.908 | > 10000 nM | 0.49 | 70 nM | 0.977 | > 30000 nM | 0.397 | 156 nM | 0.931 | > 100 nM | 0.744 | 3780 nM | 0.831 | 2190 nM | 0.746 | 12300 nM
4 | EC-GI-10 (oesophagus, adherent) | 0.989 | > 20000 nM | 0.894 | > 10000 nM | 0.974 | > 1200 nM | 0.936 | > 30000 nM | 0.81 | 2660 nM | 0.989 | > 100 nM | 0.668 | 1820 nM | 0.957 | > 2560 nM | 0.979 | > 32000 nM
5 | NAMALWA (Burkitt lymphoma, suspension) | 0.544 | 1620 nM | 0.872 | 7040 nM | 0.352 | 31.3 nM | 0.988 | > 30000 nM | 0.37 | 149 nM | 0.75 | 28.3 nM | 0.666 | 1660 nM | 0.723 | 607 nM | 0.747 | 8880 nM
6 | NCI-SNU-5 (stomach, suspension) | 0.989 | > 20000 nM | 0.796 | 4750 nM | 0.62 | 161 nM | 0.972 | > 30000 nM | 0.491 | 303 nM | 0.965 | > 100 nM | 0.883 | > 10000 nM | 0.877 | > 2560 nM | 0.986 | > 32000 nM
7 | NCI-H747 (large intestine, adherent) | 0.91 | > 20000 nM | 0.769 | 4610 nM | 0.371 | 30.5 nM | 0.98 | > 30000 nM | 0.72 | 1560 nM | 0.837 | 88.7 nM | 0.766 | 4490 nM | 0.745 | 963 nM | 0.761 | 13800 nM
8 | NCI-H1155 (large cell lung carcinoma, suspension) | 0.985 | > 20000 nM | 0.933 | > 10000 nM | 0.817 | 525 nM | 0.983 | > 30000 nM | 0.538 | 398 nM | 0.964 | > 100 nM | 0.87 | 6600 nM | 0.96 | > 2560 nM | 0.979 | > 32000 nM
9 | SNU-C2B (large intestine, adherent) | 0.948 | > 20000 nM | 0.804 | 6990 nM | 0.645 | 215 nM | 0.956 | > 30000 nM | 0.813 | 3910 nM | 0.967 | > 100 nM | 0.868 | > 10000 nM | 0.734 | 939 nM | 0.963 | > 32000 nM
10 | MLMA (hairy cell leukaemia, semi-adherent) | 0.758 | 6990 nM | 0.927 | > 10000 nM | 0.539 | 95.6 nM | 0.977 | > 30000 nM | 0.698 | 1160 nM | 0.756 | 34.3 nM | 0.509 | 663 nM | 0.875 | 2550 nM | 0.762 | 11500 nM
11 | GI-ME-N (neuroblastoma, adherent) | 0.626 | 3170 nM | 0.793 | 6550 nM | 0.609 | 166 nM | 0.867 | > 30000 nM | 0.464 | 247 nM | 0.936 | > 100 nM | 0.503 | 637 nM | 0.86 | > 2560 nM | 0.977 | > 32000 nM
12 | Becker (glioma, adherent) | 0.983 | > 20000 nM | 0.903 | > 10000 nM | 0.447 | 52.8 nM | 0.967 | > 30000 nM | 0.676 | 1060 nM | 0.653 | 17.6 nM | 0.747 | 3540 nM | 0.862 | > 2560 nM | 0.984 | > 32000 nM
13 | NOMO-1 (acute myeloid leukaemia, suspension) | 0.846 | 17600 nM | 0.287 | 142 nM | 0.735 | 390 nM | 0.98 | > 30000 nM | 0.491 | 301 nM | 0.847 | 89 nM | 0.608 | 1290 nM | 0.891 | > 2560 nM | 0.717 | 9040 nM
14 | A498 (kidney, adherent) | 0.976 | > 20000 nM | 0.878 | > 10000 nM | 0.979 | > 1200 nM | 0.975 | > 30000 nM | 0.972 | > 5120 nM | 0.979 | > 100 nM | 0.758 | 5190 nM | 0.903 | > 2560 nM | 0.973 | > 32000 nM

A lower IC50 marks a more sensitive line; fits outside the tested doses are given as limits. The AUC spans the tested range (256-fold, ending at the top dose) of the same fit: 1 means no effect, lower means more sensitive. For part of these data: Any top dose called inferred was derived from the fitted curves, not read from the paper.
